Measurements as given in publication PMC4336329 (PLoS ONE, 2015).
In all, about 310,000 compounds went through this assay and about 2,200 (0.71%) showed an effect of 50% or more. Effects have a minus sign here. The list shows a part of the results.

Each molecule was assayed against human ether-à-go-go-related gene (hERG) potassium channel (human, UniProt Q12809) (assay: primary screen, population patch clamp on CHO cells stably expressing hERG).
Sequence of human ether-à-go-go-related gene (hERG) potassium channel (Q12809 whole entry, looked up): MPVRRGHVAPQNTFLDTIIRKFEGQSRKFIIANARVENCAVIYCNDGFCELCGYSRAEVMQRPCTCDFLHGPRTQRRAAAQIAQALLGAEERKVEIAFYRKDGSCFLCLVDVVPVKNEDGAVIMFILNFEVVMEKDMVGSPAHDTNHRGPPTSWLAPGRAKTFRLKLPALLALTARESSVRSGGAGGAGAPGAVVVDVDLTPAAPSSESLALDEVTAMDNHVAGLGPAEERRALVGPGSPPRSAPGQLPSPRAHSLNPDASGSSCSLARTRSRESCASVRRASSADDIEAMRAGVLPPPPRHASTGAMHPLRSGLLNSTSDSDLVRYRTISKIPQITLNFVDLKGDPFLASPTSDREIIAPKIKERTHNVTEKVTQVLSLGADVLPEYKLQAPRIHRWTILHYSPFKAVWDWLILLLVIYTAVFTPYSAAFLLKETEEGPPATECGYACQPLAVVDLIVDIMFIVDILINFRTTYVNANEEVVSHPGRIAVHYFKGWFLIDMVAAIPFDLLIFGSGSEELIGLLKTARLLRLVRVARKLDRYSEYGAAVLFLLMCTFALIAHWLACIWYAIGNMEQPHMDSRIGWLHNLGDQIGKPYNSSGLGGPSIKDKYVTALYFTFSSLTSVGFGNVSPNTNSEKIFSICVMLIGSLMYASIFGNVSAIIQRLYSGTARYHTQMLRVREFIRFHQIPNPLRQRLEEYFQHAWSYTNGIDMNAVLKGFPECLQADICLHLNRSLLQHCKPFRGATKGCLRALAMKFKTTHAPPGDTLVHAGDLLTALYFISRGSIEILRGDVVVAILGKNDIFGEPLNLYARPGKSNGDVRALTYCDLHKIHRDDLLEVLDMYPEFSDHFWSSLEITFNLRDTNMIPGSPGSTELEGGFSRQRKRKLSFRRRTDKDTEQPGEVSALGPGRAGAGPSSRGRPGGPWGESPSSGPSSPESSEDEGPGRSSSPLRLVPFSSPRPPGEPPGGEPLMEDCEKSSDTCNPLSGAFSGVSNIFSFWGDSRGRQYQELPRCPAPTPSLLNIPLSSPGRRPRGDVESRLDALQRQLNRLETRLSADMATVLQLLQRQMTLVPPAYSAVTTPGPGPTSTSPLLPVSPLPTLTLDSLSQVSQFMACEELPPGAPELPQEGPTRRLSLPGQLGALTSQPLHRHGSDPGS

Structure (SMILES) | hERG current change (%, negative = inhibition) at 1uM
COc1ccc(NC(=S)N(CCCN2CCCCC2)Cc2cccs2)cc1 | -50.1%
CCN(C(=O)COC(=O)C1CCN(S(=O)(=O)c2c(Cl)cccc2Cl)CC1)C1CCCCC1 | 3.91%
Cc1nnc(SCC(=O)NC(=O)NCc2ccco2)n1Cc1ccccc1 | 10.2%
O=C(NCCc1ccccc1)c1ccc(S(=O)(=O)N2CCCC2)cc1 | 1.97%
COCCN(C(=O)Nc1ccc(OC)cc1OC)C1CCN(C(C)C)CC1 | 6.89%
CCOC(=O)C1CCCN(C(=O)c2ccc(OCC)cc2)C1 (stereo not shown) | 9.68%
COc1ccc(CC(=O)N/N=C/c2ccc(Cl)s2)cc1OC | 7.65%
Cc1cc(NC(=O)CSc2nc(Cc3ccc(O)cc3)c(C)[nH]2)no1 | -2.35%
Cc1ccccc1N1CCN(CC(=O)Nc2nc(C)c(C(=O)N(C)C)s2)CC1 | 9.73%
COc1ccc(OC)c(S(=O)(=O)Nc2ccc(C(C)=O)cc2)c1 | 4.91%
O=C(NCCCc1ccccc1)N1CCOCC1 | 7%
Cl.O=C(O)c1ccccc1N/N=C\c1ccnc2ccccc12 | 14.7%
C=CCC1CCC/C(=N\NS(=O)(=O)c2ccc(C)cc2)C1 (stereo not shown) | 11%
COc1ccc(Br)cc1CNCC1CCCO1 (stereo not shown) | 9.62%
COc1cccc(C(=O)Nc2nc3ccc(S(C)(=O)=O)cc3s2)c1 | 12.7%
O=C(NCCc1nccs1)C1CCC(=O)N(CCc2ccc(Cl)cc2)C1 (stereo not shown) | 5.69%
Cc1ccc(-n2nc(C)c(NC(=O)COC(=O)c3ccccc3NCCO)c2C)cc1 | 7.81%
C#Cc1cccc(NC(=O)c2ccc(Cl)cc2Cl)c1 | 8.52%
Cc1ccc(-c2nn3c(C)nnc3s2)cc1N | -10.5%
Clc1ccc(CN2CCN(c3ncnc4scc(-c5cccs5)c34)CC2)cc1 | -1.8%
CCN(CC)c1ccc(N=Cc2c(O)n(CCc3ccc(OC)c(OC)c3)c(=O)[nH]c2=O)cc1 | 16.4%
CCn1c(SCC(=O)Nc2ccc(N(C)C)cc2)nnc1-c1cccc(C)c1 | 1.54%
CCCCCOc1ccc(C(=O)Nc2ccc(S(=O)(=O)Nc3cc(C)on3)cc2)cc1 | 17%
O=C(N/N=C/c1c(O)ccc2ccccc12)c1cccc(C(F)(F)F)c1 | 13.9%
O=C(NCCc1ccccc1)C1CCN(S(=O)(=O)c2ccc(Br)s2)CC1 | 1.98%
O=C(O)CC1(CC(=O)Nc2ccc(Cl)cc2C(=O)c2ccccc2)CCCC1 | 11%
CCCn1c(O)c(CN2CCCCC2)c(C)c(C#N)c1=O | 12.3%
CC(=O)c1cccc(NC(=O)c2cc(-c3ccncc3)nc3ccccc23)c1 | 6.32%

Structure (SMILES) | hERG current change (%, negative = inhibition) at 1uM
CC(CN1CCCC1)OC(=O)c1ccc(Cl)cc1Cl.Cl (stereo not shown) | 7.55%
O=C(NCc1ccccc1Cl)C(=O)NCC1OCCCN1S(=O)(=O)c1cccs1 (stereo not shown) | 6.57%
C[C@H](NC(=O)N1CCn2c1nc1ccccc12)C(=O)NC1CCCCC1 | -1.62%
CCc1ccc(OCC(=O)NC(=S)Nc2ccc(S(=O)(=O)NC3CCCCC3)cc2)cc1 | 19.8%
O=[N+]([O-])c1ccc(Cl)c(S(=O)(=O)Nc2ccc(-c3ccc(N4CCOCC4)nn3)cc2)c1 | 14.1%
O=C(O)CN1C(=O)/C(=C\c2cc([N+](=O)[O-])ccc2OCc2ccccc2Cl)SC1=S | 20%
CCOC(=O)CC1C(=O)NCCN1S(=O)(=O)c1ccc(F)cc1 (stereo not shown) | 2.94%
COc1cc(C(=O)N/C(=C\c2cn(C)c3ccccc23)C(=O)NCCN2CCOCC2)cc(OC)c1OC | 16.7%
CC(=O)Nc1c(-c2ccc3ccccc3c2)nc2ccccn12 | 4.13%
CCOC(=O)C1CCCN(c2cc(C)nc3cc(-c4ccc(F)cc4)nn23)C1 (stereo not shown) | 5.1%
Clc1cc(Br)ccc1OCCN1CCOCC1.O=C(O)C(=O)O | 8.04%
CC(C)(C)NC(=O)C(c1ccc(O)cc1)N(C(=O)CCC(=O)Nc1ccccn1)c1ccc(F)cc1 (stereo not shown) | 16.3%
Cc1ccc(N2C(=O)CC(n3ccnc3)C2=O)cc1C (stereo not shown) | -3.17%
O=C(CC1C(=O)NCCN1C(=O)Nc1ccc(F)cc1F)Nc1ccc(F)cc1 (stereo not shown) | 20.2%
COc1ccc(C(=O)Nc2ccc3c(c2)CCCN3C(=O)c2cccs2)c(OC)c1 | 4.76%
O=C(C1CCCN(S(=O)(=O)c2cccc3nsnc23)C1)N1CC=C(c2ccccc2)CC1 (stereo not shown) | -10.1%
Cc1ccc(S(=O)(=O)N(C)C)cc1NC(=O)c1ccncc1 | 7.19%
O=C(CCn1nnc2ccccc21)N1CCC(O)(c2cccc(F)c2)CC1 | 10.5%
O=C(NC1=NCCS1)c1ccc(Cl)c(S(=O)(=O)N2CCOCC2)c1 | 17.4%
COc1ccc(-n2c(-c3ccccc3)nnc2-c2ccc(Cl)cc2)cc1 | 5.53%
COc1ccc(-n2ncc3c(NCc4cccnc4)ncnc32)cc1 | 2.06%
COc1ccc(C(=O)NNC(=O)COc2ccc(Cl)cc2C)cc1S(=O)(=O)N1CCOCC1 | -11.1%
COc1cccc(OC)c1CN(C)C(=O)c1cnccc1C(F)(F)F | 9.21%
CCc1c(C)nc2ncnn2c1Nc1ccccc1C | 4.45%
OCc1cc(C(O)CNCCCCCCOCCCCc2ccccc2)ccc1O (stereo not shown) | -16.8%
CC1(O)c2ccccc2C(=O)N1CCc1ccccc1F (stereo not shown) | 0.432%
COc1ccc(C(=O)Nc2ccc(C(=O)OCC(=O)c3cccc4ccccc34)cc2)cc1 | 9.13%
